IC50 is the fitted dose that halves viability relative to control wells, and lower means more sensitive; a limit (>, <) means that the fit lies beyond the doses tested. AUC, from the same fit, is the share of area under the viability curve across the 256-fold dose range; it is 1 without any effect and falls as sensitivity rises. For part of these data: An inferred top dose is not printed in the source and was worked back from the curve model.
How the values were obtained:
Assay in all cases: Viability of human cancer cell lines after 72 h of drug (GDSC screen)
CX-5461 = compound: Cc1cnc(CNC(=O)c2c(=O)c3ccc(N4CCCN(C)CC4)nc3n3c2sc2ccccc23)cn1 [CX-5461]; conditions: top dose 10.24 µM; top dose inferred
Method: (§1)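 Human cancer cell lines in 384-well plates, medium with 10% serum, drug for 72 h over a 256-fold dose range (nine 2-fold or five 4-fold steps up to the top dose). Adherent lines were fixed and stained with the nucleic acid dye Syto60, suspension lines read with resazurin; signal relative to control wells, capped at 0 and 100%. One two-parameter sigmoid per drug and line, fitted in a mixed model over all curves with the slope shared within a line.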

CP724714 = compound: COCC(=O)NC/C=C/c1ccc2ncnc(Nc3ccc(Oc4ccc(C)nc4)c(C)c3)c2c1 [CP724714]; conditions: top dose 10.24 µM; top dose inferred
Method: as §1

Obatoclax mesylate = compound: COC1=CC(c2cc3ccccc3[nH]2)=N/C1=C\c1[nH]c(C)cc1C [Obatoclax mesylate]; conditions: top dose 16 µM
Method: as §1

STF-62247 = compound: Cc1cccc(Nc2nc(-c3ccncc3)cs2)c1 [STF-62247]; conditions: top dose 10.24 µM; top dose inferred
Method: as §1

Cell Line | AUC (CX-5461) | IC50 (CX-5461) | AUC (CP724714) | IC50 (CP724714) | AUC (Obatoclax mesylate) | IC50 (Obatoclax mesylate) | AUC (STF-62247) | IC50 (STF-62247)
T98G (glioma, adherent) | 0.987 | > 10.2 µM | 0.981 | > 10.2 µM | 0.656 | 2.61 µM | 0.985 | > 10.2 µM
T-24 (bladder, adherent) | 0.966 | > 10.2 µM | 0.986 | > 10.2 µM | 0.654 | 2.62 µM | 0.984 | > 10.2 µM
T-T (oesophagus, adherent) | 0.974 | > 10.2 µM | 0.971 | > 10.2 µM | 0.115 | < 0.0625 µM | 0.986 | > 10.2 µM
TCCSUP (bladder, adherent) | 0.984 | > 10.2 µM | 0.984 | > 10.2 µM | 0.543 | 1.33 µM | 0.985 | > 10.2 µM
TGBC11TKB (stomach, adherent) | 0.99 | > 10.2 µM | 0.877 | 8.2 µM | 0.714 | 3.7 µM | 0.977 | > 10.2 µM
TMK-1 (stomach, adherent) | 0.986 | > 10.2 µM | 0.984 | > 10.2 µM | 0.249 | 0.181 µM | 0.986 | > 10.2 µM
TOV-21G (ovary, adherent) | 0.984 | > 10.2 µM | 0.984 | > 10.2 µM | 0.963 | > 16 µM | 0.978 | > 10.2 µM
TOV-112D (ovary, adherent) | 0.669 | 1.89 µM | 0.916 | > 10.2 µM | 0.106 | < 0.0625 µM | 0.969 | > 10.2 µM
TT2609-C02 (thyroid, adherent) | 0.62 | 1.4 µM | 0.985 | > 10.2 µM | 0.168 | 0.0896 µM | 0.983 | > 10.2 µM
TT (thyroid, adherent) | 0.983 | > 10.2 µM | 0.981 | > 10.2 µM | 0.818 | 14 µM | 0.981 | > 10.2 µM
TYK-nu (ovary, adherent) | 0.953 | > 10.2 µM | 0.961 | > 10.2 µM | 0.204 | 0.123 µM | 0.947 | > 10.2 µM
U031 (kidney, adherent) | 0.969 | > 10.2 µM | 0.969 | > 10.2 µM | 0.161 | 0.0874 µM | 0.978 | > 10.2 µM
U251 (glioma, adherent) | 0.8 | 4.67 µM | 0.977 | > 10.2 µM | 0.318 | 0.318 µM | 0.957 | > 10.2 µM
U-2-OS (osteosarcoma, adherent) | 0.788 | 4.92 µM | 0.936 | > 10.2 µM | 0.852 | 14.1 µM | 0.983 | > 10.2 µM
U-118-MG (glioma, adherent) | 0.986 | > 10.2 µM | 0.971 | > 10.2 µM | 0.363 | 0.393 µM | 0.985 | > 10.2 µM
UACC-62 (melanoma, adherent) | 0.988 | > 10.2 µM | 0.966 | > 10.2 µM | 0.347 | 0.379 µM | 0.973 | > 10.2 µM

Cell Line | AUC (CX-5461) | IC50 (CX-5461) | AUC (CP724714) | IC50 (CP724714) | AUC (Obatoclax mesylate) | IC50 (Obatoclax mesylate) | AUC (STF-62247) | IC50 (STF-62247)
UACC-893 (breast, adherent) | 0.979 | > 10.2 µM | 0.83 | 9.65 µM | 0.652 | 3.05 µM | 0.96 | > 10.2 µM
UM-UC-3 (bladder, adherent) | 0.678 | 1.94 µM | 0.944 | > 10.2 µM | 0.286 | 0.26 µM | 0.953 | > 10.2 µM
UMC-11 (lung carcinoid, adherent) | 0.879 | 8.56 µM | 0.985 | > 10.2 µM | 0.533 | 1.22 µM | 0.984 | > 10.2 µM
VM-CUB-1 (bladder, adherent) | 0.984 | > 10.2 µM | 0.983 | > 10.2 µM | 0.444 | – | 0.98 | > 10.2 µM
VMRC-MELG (melanoma, adherent) | 0.987 | > 10.2 µM | 0.987 | > 10.2 µM | 0.527 | 1.19 µM | 0.985 | > 10.2 µM
VMRC-RCW (kidney, adherent) | 0.986 | > 10.2 µM | 0.98 | > 10.2 µM | 0.111 | < 0.0625 µM | 0.975 | > 10.2 µM
VMRC-RCZ (kidney, adherent) | 0.962 | > 10.2 µM | 0.976 | > 10.2 µM | 0.366 | – | 0.97 | > 10.2 µM
WM35 (melanoma, adherent) | 0.682 | 2.07 µM | 0.976 | > 10.2 µM | 0.053 | < 0.0625 µM | 0.963 | > 10.2 µM
WM278 (melanoma, adherent) | 0.981 | > 10.2 µM | 0.981 | > 10.2 µM | 0.197 | 0.109 µM | 0.984 | > 10.2 µM
WM793B (melanoma, adherent) | 0.951 | > 10.2 µM | 0.975 | > 10.2 µM | 0.093 | < 0.0625 µM | 0.984 | > 10.2 µM
WM1552C (melanoma, adherent) | 0.869 | 9.51 µM | 0.985 | > 10.2 µM | 0.092 | < 0.0625 µM | 0.986 | > 10.2 µM
WM-115 (melanoma, adherent) | 0.876 | > 10.2 µM | 0.942 | > 10.2 µM | 0.719 | 4.86 µM | 0.949 | > 10.2 µM
YAPC (pancreas, adherent) | 0.972 | > 10.2 µM | 0.984 | > 10.2 µM | 0.729 | 5.34 µM | 0.985 | > 10.2 µM
YKG-1 (glioma, adherent) | 0.76 | 3.65 µM | 0.978 | > 10.2 µM | 0.225 | 0.156 µM | 0.957 | > 10.2 µM
huH-1 (liver, adherent) | 0.984 | > 10.2 µM | 0.978 | > 10.2 µM | 0.729 | 5.31 µM | 0.983 | > 10.2 µM

— the supplement of paper PMC4967469
